The values below are quoted from earlier work in publication PMC11963566, “A phase I, single-center, randomized, open-label, three-period crossover study to evaluate the drug–drug interaction between ZSP1273 and oseltamivir in healthy Chinese subjects” (Antimicrobial Agents and Chemotherapy, 2025).

This data set deals with influenza A. Particulars: human, in vivo; cited from earlier work.

`O=C(O)[C@H]1C2CCC(CC2)[C@@H]1Nc1nc(-c2n[nH]c3ncc(F)cc23)nc(C2CC2)c1F` [ZSP1273]: the “safety profile versus placebo” value is “a safety profile comparable to placebo”.
